Data: PubChem BioAssay (NCI)
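Interpolation was linear, between the two tested concentrations surrounding the appropriate level; five concentrations were tested over 48 hours in 96-well plates. The concentration for 50% growth inhibition is given as GI50. TGI: total growth inhibition.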

System: NCI-H322M lung
Experiment: DTP human tumour cell line panel, 48 h

SMILES	GI50 [µM]	TGI [µM]
CC1OC(n2c3ccccc3c3c4c(c5c6ccccc6[nH]c5c32)C(=O)N(CCN2CCOCC2)C4=O)CC(O)C1O (stereo unspecified)	3.73	11.8
O=C1c2cc([N+](=O)[O-])cc3cc([N+](=O)[O-])cc(c23)C(=O)N1CCCNCCNCCCN1C(=O)c2cc([N+](=O)[O-])cc3cc([N+](=O)[O-])cc(c23)C1=O	–	6.84
COC(=O)c1cc(C)ccc1C1CN=NC12Cc1cccc(C)c1C2=O (stereo unspecified)	–	> 100
CCC12CC(c3ccccc3)C(C(=O)N1)C(=O)N2 (stereo unspecified)	–	> 100
CC(C)NC(=O)OCc1c(COC(=O)NC(C)C)c(-c2ccc(Cl)c(Cl)c2)n2c1CCC2	–	72.8
C[C@H](N[C@H]1CCC[C@]1(O)C#Cc1ccc2c(c1)OCO2)c1ccccc1	–	> 25
NC(=O)Nc1c([N+](=O)[O-])cc(C(F)(F)F)cc1[N+](=O)[O-]	–	> 100
C=C(C)[C@@H]1CC[C@]2(C(=O)O)CC[C@]3(C)[C@H](CC[C@@H]4[C@@]5(C)C/C(=C/c6ccc(OC)cc6)C(=O)C(C)(C)[C@@H]5CC[C@]43C)[C@@H]12	2.41	8.45
COc1ccc2c(c1)/C(=C\c1c(Cl)n(C)c3ccccc13)C(=O)N2	6.56	22.1
O=S(=O)(CCNCc1ccc(-c2ccc3ncnc(Nc4ccc(OCc5cccc(F)c5)c(Cl)c4)c3c2)o1)c1ccccc1	> 18.4	> 25
COc1cc(/C=C2\C(=O)N(c3ccccc3)c3ccccc32)cc(OC)c1OC	15.3	31.7
CCC1CC(C)=CCN1S(=O)(=O)c1ccc(C)cc1 (stereo unspecified)	–	> 100
O=C(NCCNc1nccc(-c2c(-c3cccc(O)c3)nc3sccn23)n1)Nc1cccc(C(F)(F)F)c1	6.13	26
C=C(C)[C@@H]1CCC2=C[C@H](OC2=O)[C@@]2(C)C[C@@H]2C(=O)/C=C(/C)C(=O)[C@H]1OC(C)=O	–	> 100
CCCC(=O)NC(C(=O)OCC)(N1CCOCC1)C(F)(F)F (stereo unspecified)	–	> 100
Cc1ccc(-c2nc(N)c(C#N)c3c2CCOc2c-3ccc3ccccc23)cc1	0.812	30.4
COC(=O)c1ccc(COC(=O)N2C=CCC2C(=O)O)cc1 (stereo unspecified)	–	> 100
O=C1CC[C@H](c2ccc(O)c3c2C(=O)[C@@H]2O[C@@H]2C3=O)c2cccc(O)c21	13.6	29.1
O=C(Nc1ccc(OCc2nnc(-c3ccccc3)o2)c(F)c1)Nc1ccc(Cl)c(C(F)(F)F)c1	2.25	8.58
CCOC(=O)c1c(Cl)c2c(n1Cc1cccc(OC)c1)-c1oncc1CC2	3.53	> 100
CC(=O)NC1C(OC2C(CO)OC(OCC3OC(n4ccc(N)nc4=O)C(O)C3O)C(NC(C)=O)C2O)OC(CO)C(O)C1O (stereo unspecified)	–	> 100
C/C(=C\CCc1ccsc1)CC/C=C(\C)CCCN1CCC(CO)CC1	5.05	18.3
C/C=C1/CN2CCC34c5ccccc5N(C)C23C2CC1C4(C(=O)OC)C(O)O2 (stereo unspecified)	–	> 100

SMILES	GI50 [µM]	TGI [µM]
COc1cc2c(cc1OC)C1Cc3cc(OC)c(OC)cc3C(C2)O1	–	> 100
O=C1NC(c2c(Cl)cccc2Cl)Nc2ccccc21 (stereo unspecified)	–	> 100
CCOC(=O)N/N=C(\Cc1ccc([N+](=O)[O-])cc1)OCC	–	> 100
CCn1c(-c2nonc2N)nc2cncc(C(=O)NCCNC)c21	2.48	> 23.7
Cc1sc(NC2=NC(=O)/C(=C\c3ccccc3)S2)nc1-c1nc(NC2=NC(=O)/C(=C\c3ccccc3)S2)sc1C	8.46	26.5
CC1(C)CCCCCCC2CC2CCCCCC(C)(C)C1=O (stereo unspecified)	–	> 100
NCCCCN(CCCN)Cc1ccc2ccccc2c1	–	> 100
N#Cc1c(-c2cccc(Cl)c2)cc(-c2ccc(Cl)cc2)nc1N	–	75.1
CCOC(=O)N1CCN(c2nc(C)n(-c3ccccc3)c(=S)c2C#N)CC1	–	> 100
CCC1c2[nH]c3ccccc3c2C[C@H]2C(=O)N3CCC[C@H]3C(=O)N12 (stereo partly specified)	–	> 100
O=C1OC(c2ccccc2)=N/C1=C\c1cc(Cl)ccc1Cl	–	> 100
N#C/C(=C1C=C/C(=N\O)C(Cl)=C\1)c1ccccc1	10.5	> 100
CC(=O)C1=C(C)N2C(=NC3=C(CCc4ccccc43)C2c2cccc(Br)c2)S1 (stereo unspecified)	–	> 100
Cc1c2cc[n+](C)cc2c(C)c2c1[nH]c1ccc(Cl)cc12	–	17.7
CCC(CCN)(CCN)[N+](=O)[O-]	–	> 100
O=C(Nc1sccc1S(=O)(=O)c1ccc(Cl)cc1)c1ccccc1	–	> 100
COC(=O)c1cnn2c1ccc1ccccc12	–	> 100
COc1cc([C@@H]2c3cc4c(cc3[C@@H](OC3OC5COC(C)OC5C(OC(=O)CN5CCN(C)CC5)C3OC(=O)CN3CCN(C)CC3)C3COC(=O)[C@@H]32)OCO4)cc(OC)c1OC(=O)CN1CCN(C)CC1 (stereo partly specified)	–	> 100
CCCCCCCCCCCCCCCCCC(=O)OCC(C[As](=O)(O)O)OC(=O)CCCCCCCCCCCCCCCCC (stereo unspecified)	–	> 100
COc1ccc(-c2nn(-c3cccc(NC(=O)c4cccc(C(F)(F)F)c4)c3)cc2-c2ccncc2)cc1Cl	6.64	> 100
c1ccc2sc(C3(N4CCC5(CC4)OCCO5)CCCCC3)cc2c1	–	> 100
Oc1ccc(-c2cn3cc(Cl)sc3n2)cc1	21.4	70.5
